Measurements from PubChem BioAssay AID662 (National Center for Advancing Translational Sciences (NCATS), 2007).
Among all 71,000 compounds or so, about 1,800 (2.5%) were called active. The inconclusive results got no clear call from the source; some entries with a clear call stand among them for comparison. Calls follow the shape of the dose curve; as a rule, active = well fitted activation curve with a large enough effect in the signal ratio, with a control signal flat (not every such curve was filed as active); inconclusive = small, poorly fitted or top-dose-only effect, or effect the other way, or a change in a side signal; inactive = flat fitted curve, though single readings scatter; the % refers to the signal ratio. Potencies beside an inconclusive call are fits to weak or partial responses and may not hold up.

test: Cell signaling CRE-BLA (Fsk stim); conditions: CHO CRE-bla reporter (cAMP response element driving beta-lactamase), forskolin EC10, beta-lactamase ratio; activity change, negative = inhibition: at 38.2 µM (top of the series) unless noted; as to activity change, negative = inhibition: % of control where 0% means no effect
Summary of the method: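 Titrated compounds plus EC10 NKH 477 on CHO CRE-bla cells, 3 h, 37 °C. CCF4, 2 h RT. Ratio 460/530 nm → AC50.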
Potency is read from the fitted curve at half-maximal effect; tags tell the direction and shape of the fitted curve.

Row | Compound | Potency | activity change, negative = inhibition
1 | CCOC(=O)CN1CC23C=CC(O2)C(C(=O)NC2CCCCC2)C3C1=O (configuration not stated) | inconclusive: 0.02 µM [rising, full curve, poor fit] | 
2 | COC(=O)CNC(=O)C1CCN(c2nc(C)cc(C)n2)CC1 |  | inactive
3 | Cc1nn(-c2ccc(F)cc2)c2c1cc(C#N)c1nc3ccccc3n12 |  | inactive
4 | CC(C)(/C=N/O)/[N+]([O-])=C/C=[N+](\[O-])C(C)(C)/C=N/O |  | inconclusive: 15.1%
5 | Cc1onc(-c2ccccc2)c1C(N)=O |  | inactive
6 | Cc1ccc(-c2cnc(N)n2C)cc1C |  | inactive
7 | COc1ccc(NC(=O)C=C(C)C)cc1Cl |  | inactive
8 | Cc1ccc(OCc2occc2C(=O)O)cc1 |  | inactive
9 | CCC(C)Sc1nnc(Cc2cc(=O)[nH]c(=O)[nH]2)n1-c1ccc(OC)cc1 (configuration not stated) |  | inactive
10 | CCOC(=O)c1ccc(NC(=O)N2CCN(c3ccccn3)CC2)cc1 |  | inactive
11 | c1ccc(CSc2nnc(-c3ccncc3)o2)cc1 |  | inactive
12 | COc1ccc(-n2c(Cc3cccn3C)nnc2SCC(=O)Nc2ccc(C)c(Cl)c2)cc1 |  | inconclusive: -12.7%
13 | CCOc1cc(CN2CCSCC2)ccc1O |  | inconclusive: -5.06% [at 7.6 µM]
14 | Cc1sc2ncnc(OCC(=O)NCC3CCCO3)c2c1C (configuration not stated) |  | inactive
15 | COc1ccc(OC)c(C2CC(=O)c3c([nH]c(C(=O)OCC4CCCO4)c3C)C2)c1 (configuration not stated) |  | inactive
16 | CCN(CCNS(=O)(=O)c1ccc2c(c1)oc(=O)n2C)c1ccccc1 |  | inactive
17 | CN1C(=O)C(O)(CC(=O)c2ccccn2)c2cc(Br)ccc21 (configuration not stated) | inconclusive: 5.01 µM [rising, single point] | 
18 | COc1ccc2[nH]c(C(=O)c3ccccc3)cc2c1 | inconclusive: 15.8 µM [rising, partial curve, poor fit] | 
19 | CCn1c(SCC(=O)c2ccccc2)nnc1-c1cnccn1 | inconclusive: 3.16 µM [rising, single point] | 
20 | O=C(NCCN1CCOCC1)NC1(C(F)(F)F)Oc2ccccc2O1 |  | inconclusive: -10.4%
21 | CSc1nc(-c2ccccc2)ccc1C(N)=O |  | inconclusive: -17.9%
22 | O=C(CSc1nnc(C2CC2)n1Cc1ccccc1)c1cc2ccccc2o1 | inconclusive: 25.1 µM [rising, single point] | 

Row | Compound | Potency | activity change, negative = inhibition
23 | CCOC(=O)c1oc2ccccc2c1NC(=O)c1cccc(OC)c1 | active: 3.16 µM | 
24 | CCCCNc1c(C(=O)OCC)c(=O)[nH]c2ccccc12 |  | inactive
25 | CCOc1ccc(-c2nc(-c3ccc(OC)c(OC)c3)no2)cc1OCC |  | inconclusive: -10.4%
26 | COc1cccc(-c2nc(NCCN3CCOCC3)c3ccccc3n2)c1 | inconclusive: 25.1 µM [rising, single point] | 
27 | Cc1ccc2[nH]c(=O)c(CN(Cc3ccco3)C(=O)c3cccs3)cc2c1 |  | inactive
28 | CCc1cc(=O)oc2cc(OCC(=O)OC)c(Cl)cc12 | inconclusive: 25.1 µM [rising, single point] | 
29 | COc1cccc(-n2nnc3c(=O)n(Cc4ccccc4F)cnc32)c1 | active: 12.6 µM | 
30 | Cc1nnc(N2CCN(c3ccccc3)CC2)[nH]c1=O |  | inactive
31 | O=C(CSc1ccc(Cl)cc1)NC1CCCC1 | inconclusive: 1 µM [falling, partial curve] | 
32 | Nn1c(SCc2ccccc2)nnc1-c1ccco1 |  | inconclusive: 10.2%
33 | O=S(=O)(c1cccc(-c2nc3ccccc3s2)c1)N1CCCC1 | inconclusive: 10 µM [rising, partial curve] | 
34 | C#CC1(O)CC(C)N(C)C(C)C1 (configuration not stated) |  | inactive
35 | O=c1cc(CN2CCN(C/C=C/c3ccccc3)CC2)c2cc(O)ccc2o1 |  | inconclusive: -16%
36 | COc1cccc(NC(=O)c2cn(C)c(=O)c3cc(OC)c(OC)cc23)c1 | inconclusive: 3.98 µM [rising, partial curve] | 
37 | O=C1OCc2cccc3cccc1c23 |  | inactive
38 | CC(C)n1c(N2CCN(C(=O)N3CCCCC3)CC2)nc2ccccc21 |  | inactive
39 | CCN(CC)Cc1cc(Nc2ccnc3cc(Cl)ccc23)ccc1O |  | inactive
40 | Clc1ccc(-c2nn3cnnc3s2)c(Cl)c1 |  | inconclusive: 26.2%
41 | CCn1c(=O)cc(O)c2ccccc21 |  | inconclusive: 24.8%
42 | Cn1c(N)c(C(=O)COC(=O)C2(c3cccc(F)c3)CCCC2)c(=O)n(C)c1=O |  | inactive
43 | COc1ccccc1OCCCn1c(C)c(C#N)c2ccccc21 |  | inactive
44 | Cn1c(-c2ccc3nc(N)sc3c2)nc2cc(N)ccc21 |  | inconclusive: -24.1%

Row | Compound | Potency | activity change, negative = inhibition
45 | CCS(=O)(=O)N1Cc2ccccc2CC1C(=O)N1CCN(c2cccc(C)c2C)CC1 (configuration not stated) |  | inconclusive: -29.9%
46 | N#C/C(=C/c1ccc(N2CCCCCC2)o1)c1ccc(F)cc1 | inconclusive: 12.6 µM [falling, single point] | 
47 | COc1cccc(-n2c(SCC(=O)NCCC3=CCCCC3)nc3n[nH]c(C)c3c2=N)c1 | inconclusive: 10 µM [rising, partial curve] | 
48 | Nc1nc(Nc2ccccc2Br)nc(C(F)(F)F)n1 |  | inconclusive: 29%
49 | COC(=O)c1[nH]c2cccc(OC)c2c1NC(=O)CCN1CCC(C(N)=O)CC1 |  | inactive
50 | CCCCCCOc1ccc(/C(N)=N/O)cc1 | inconclusive: 25.1 µM [rising, single point] | 
51 | CC(NC(=O)c1ccco1)C(c1cccs1)N1CCN(c2ccccc2)CC1 (configuration not stated) |  | inconclusive: -27.6%
52 | C[C@@]12CC(=O)[C@@H]3[C@@H](CCC4=CC(=O)CC[C@]43C)[C@@H]1CC=C2CC(=O)O |  | inactive: -3.76% [at 7.6 µM]
53 | O=C(O)CCCCC1CCSS1 (configuration not stated) |  | inactive
54 | COCC(=O)O[C@]1(CCN(C)CCCc2nc3ccccc3[nH]2)CCc2cc(F)ccc2[C@@H]1C(C)C |  | inactive
55 | COc1ccc(C(=O)Nc2cc(Cl)cc(Cl)c2)c(OC)n1 | inconclusive: 0.126 µM [rising, partial curve] | 
56 | COc1ccc(CNc2cc(-c3ccccc3OC)ncn2)c(OC)c1 | inconclusive: 12.6 µM [rising, single point] | 
57 | Cc1cc(C)c2c(n1)nn1c(-n3ccnc3)cc(C)nc21 | active: 6.31 µM | 
58 | CCOC(=O)C(CC)Sc1nnc2n1C(C)(C)Cc1ccccc1-2 (configuration not stated) |  | inactive
59 | CCOc1cccc(C(=O)Nc2ccc(N(CC)CC)cc2)c1 |  | inactive: -1.01% [at 7.6 µM]
60 | C/C(Cl)=C/Cn1c(NCCCn2ccnc2)nc2c1c(=O)[nH]c(=O)n2C |  | inactive
61 | Cc1ccc(S(=O)(=O)N2CCCC2C(=O)NCCc2nc3ccccc3[nH]2)cc1 (configuration not stated) | inconclusive: 12.6 µM [rising, single point] | 
62 | COc1ccccc1N1CCN(CCCNc2cc(=O)n(C)c(=O)n2C)CC1 |  | inactive
63 | NS(=O)(=O)c1ccc(N=Nc2c(O)c(C(=O)O)cc3ccccc23)cc1 |  | inconclusive: -7.79% [at 7.6 µM]
64 | Cc1ccc(-c2nc(C)sc2CC(=O)NCc2ccco2)cc1 |  | inconclusive: -19.1%
65 | Cc1ccc(C(=O)COC(=O)CNC(=O)c2ccco2)cc1 |  | inconclusive: -23.6%
66 | Cc1cc(C)c(-c2cc(NC(=O)CSc3nncn3C)n(-c3ccccc3)n2)cc1C |  | inconclusive: -0.254%

Row | Compound | Potency | activity change, negative = inhibition
67 | COCCNC(=O)[C@H](C)/C=C/C(NC(=O)OCc1ccccc1)c1ccc(C(=O)OC)cc1 (some centres not stated) |  | inactive
68 | COc1ccc(-c2c3c(=O)n(C)c(=O)n(C)c3cn2-c2ccccc2)cc1 | inconclusive: 15.8 µM [falling, single point] | 
69 | CCN(CCCNC(=O)c1cn(CC)c2ccc(S(=O)(=O)N(C)C)cc2c1=O)c1cccc(C)c1 | inconclusive: 20 µM [rising, partial curve] | 
70 | COC(=O)c1cccc(CSc2nnc(-c3ccco3)n2-c2ccccc2)c1 | inconclusive: 10 µM [rising, single point] | 
71 | Cc1ccc(-c2nc3cnccn3c2Nc2ccccc2)o1 | inconclusive: 25.1 µM [rising, single point] | 
72 | c1ccc(OCc2nc(-c3ccccc3)no2)cc1 |  | inactive
73 | O=C(O)c1cc2c([nH]c1=O)CCCC2 |  | inconclusive: 5.65%
74 | c1nnc2c3c4c(sc3ncn12)CCC4 |  | inconclusive: -17% [at 7.6 µM]
75 | Cc1cc(C)n(-c2ncnc3c2oc2ccccc23)n1 | inconclusive: 10 µM [rising, single point] | 
76 | O=C(CC1CCCCC1)c1c(O)c2ccccc2oc1=O |  | inconclusive: -9.1%
77 | Cc1cc(Nc2cccc(F)c2)nc(-c2ccccc2O)n1 |  | inconclusive: 2.48%
78 | O=C(CSC1=NS(=O)(=O)c2ccccc21)Nc1ccccc1 |  | inconclusive: -18.3%
79 | Cc1ccc(CSC2=Nc3ccccc3C3=NC(CC(=O)NCc4ccco4)C(=O)N23)cc1 (configuration not stated) |  | inconclusive: 0.0699%
80 | COC(=O)N1CCC2(CC1)CCN(c1ncccn1)CC2 | inconclusive: 25.1 µM [rising, single point] | 
81 | COC(=O)Cn1c(C(=O)N2CCCC2)cc2c1C[C@H]1CN(C(=O)c3ccccc3)[C@@](Cc3ccccc3)(C(=O)OC)[C@@H]21 |  | inactive
82 | CC(=O)N1CCC2(CCCN(c3cccc(-c4ccccc4)c3)C2)CC1 | inconclusive: 12.6 µM [falling, single point] | 
83 | COC(=O)CCP(=O)(O)Cc1ccccc1CP(=O)(O)CCC(=O)OC |  | inconclusive: 2.04%
84 | O=C(CNC(=O)c1ccccc1)NC1(C(=O)NC2CCCC2)CCCCC1 |  | inconclusive: -17.4%
85 | COc1ccc(CN2CCN(c3cc(C)nc4c5c(C)cc(C)nc5nn34)CC2)cc1F |  | inactive
86 | COc1cc(S(=O)(=O)N2CCOCC2)ccc1NC(=O)c1cc2c(s1)CCC2 | inconclusive: 10 µM [rising, single point] | 
87 | CN(C)CCCn1cc(C2=C(c3c[nH]c4ccccc34)C(=O)NC2=O)c2ccccc21 | inconclusive: 6.31 µM [falling, partial curve] | 
